# Experimental data as given in patent publication US20080138834A1, “Cellular antagonists of GPCR physiology” (Institute Pasteur Korea, priority 2006, published 2008).
# B1: EGF: growth factor used to activate the EGF receptor (protein, UniProt P01133 23-1207, looked up)
# Pro-epidermal growth factor: PQHWSCPEGTLAGNGNSTCVGPAPFLIFSHGNSIFRIDTEGTNYEQLVVDAGVSVIMDFHYNEKRIYWVDLERQLLQRVFLNGSRQERVCNIEKNVSGMAINWINEEVIWSNQQEGIITVTDMKGNNSHILLSALKYPANVAVDPVERFIFWSSEVAGSLYRADLDGVGVKALLETSEKITAVSLDVLDKRLFWIQYNREGSNSLICSCDYDGGSVHISKHPTQHNLFAMSLFGDRIFYSTWKMKTIWIANKHTGKDMVRINLHSSFVPLGELKVVHPLAQPKAEDDTWEPEQKLCKLRKGNCSSTVCGQDLQSHLCMCAEGYALSRDRKYCEDVNECAFWNHGCTLGCKNTPGSYYCTCPVGFVLLPDGKRCHQLVSCPRNVSECSHDCVLTSEGPLCFCPEGSVLERDGKTCSGCSSPDNGGCSQLCVPLSPVSWECDCFPGYDLQLDEKSCAASGPQPFLLFANSQDIRHMHFDGTDYGTLLSQQMGMVYALDHDPVENKIYFAHTALKWIERANMDGSQRERLIEEGVDVPEGLAVDWIGRRFYWTDRGKSLIGRSDLNGKRSKIITKENISQPRGIAVHPMAKRLFWTDTGINPRIESSSLQGLGRLVIASSDLIWPSGITIDFLTDKLYWCDAKQSVIEMANLDGSKRRRLTQNDVGHPFAVAVFEDYVWFSDWAMPSVMRVNKRTGKDRVRLQGSMLKPSSLVVVHPLAKPGADPCLYQNGGCEHICKKRLGTAWCSCREGFMKASDGKTCLALDGHQLLAGGEVDLKNQVTPLDILSKTRVSEDNITESQHMLVAEIMVSDQDDCAPVGCSMYARCISEGEDATCQCLKGFAGDGKLCSDIDECEMGVPVCPPASSKCINTEGGYVCRCSEGYQGDGIHCLDIDECQLGEHSCGENASCTNTEGGYTCMCAGRLSEPGLICPDSTPPPHLREDDHHYSVRNSDSECPLSHDGYCLHDGVCMYIEALDKYACNCVVGYIGERCQYRDLKWWELRHAGHGQQQKVIVVAVCVVVLVMLLLLSLWGAHYYRTQKLLSKNPKNPYEESSRDVRSRRPADTEDGMSSCPQPWFVVIKEHQDLKNGGQPVAGEDGQAADGSMQPTSWRQEPQLCGMGTEQGCWIPVSSDKGSCPQVMERSFHMPSYGTQTLEGGVEKPHSLLSANPLWQQRALDPPHQMELTQ
# modifications: Pro-epidermal growth factor
# System: endothelin A receptor
# Details: 10-100 ng/mL EGF, with or without ET-1 and erbstatin
molecule,measurement,value
B1,ETAR internalization on EGFR activation,not affected
